These results are taken from publication PMC12820563, “FoxP3 forms a head-to-head dimer in vivo and stabilizes its multimerization on adjacent microsatellites”.

The list shows a part of the results.

The assay has as its target T1, MBP-FoxP1dN (Mus musculus, UniProt P58462 326-579).
T1 sequence: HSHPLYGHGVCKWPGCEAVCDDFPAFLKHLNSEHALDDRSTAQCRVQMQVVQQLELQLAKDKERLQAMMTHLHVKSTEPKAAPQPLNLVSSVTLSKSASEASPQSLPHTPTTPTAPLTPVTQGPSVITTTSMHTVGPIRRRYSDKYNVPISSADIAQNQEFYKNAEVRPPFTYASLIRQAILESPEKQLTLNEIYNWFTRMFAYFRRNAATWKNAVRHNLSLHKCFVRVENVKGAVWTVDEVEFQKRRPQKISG
Kind of assay: PD-seq (MBP pull-down with sequencing); 20 mM Tris-HCl pH 7.5, 100 mM NaCl, 1.5 mM MgCl2, 0.4 uM protein, 0.1 uM dsDNA library, 30 min, room temperature, amylose pull-down; high values mean tight binding. Conditions: protein: recombinant; tags: His6-MBP; chain copies: 2; dsDNA, one strand shown. The essentials: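 The N-terminus-lacking fragment of mouse FoxP3 or FoxP1 carried a His6-MBP tag and was expressed in E. coli. At 0.4 µM it was incubated with 0.1 µM Klenow-filled degenerate double-stranded DNA library for 30 min at room temperature in Tris pH 7.5 buffer with NaCl and MgCl2, and complexes were caught on amylose resin, washed three times, released with proteinase K, PCR-barcoded and Illumina-sequenced. Binding is reads-per-million enrichment of pull-down over input with replicates pooled.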
Consider “GATGATTGTTCTCCCAGCTGATGAATTGATATCATCGAGTAAACAAATTTTCCTAATCTTTCTGTTCAAGCGCCATCTAC”, for which the binding signal is 1.21 RPM ratio (pull-down/input).
With “GATGATTGTTCTCCCAGCTGATGAATTCTCATAATCGAGTAAACAAATTTTCCTAATCTTTCTGTTCAAGCGCCATCTAC”, the binding signal is 1.23 RPM ratio (pull-down/input).
As to “GATGATTGTTCTCCCAGCTGATGAATTGATACAGTCGAGTAAACAAATTTTCCTAATCTTTCTGTTCAAGCGCCATCTAC”, the binding signal is 1.12 RPM ratio (pull-down/input).
“GATGATTGTTCTCCCAGCTGATGAATTGATTATTTCGAGTAAACAAATTTTCCTAATCTTTCTGTTCAAGCGCCATCTAC”: the binding signal was 1.39 RPM ratio (pull-down/input).
Turning to “GATGATTGTTCTCCCAGCTGATGAATTGAAAGTCTCGAGTAAACAAATTTTCCTAATCTTTCTGTTCAAGCGCCATCTAC”, the binding signal is 0.817 RPM ratio (pull-down/input).
Next, “GATGATTGTTCTCCCAGCTGATGAATTCTATTCTTCGAGTAAACAAATTTTCCTAATCTTTCTGTTCAAGCGCCATCTAC”: 0.797 RPM ratio (pull-down/input); “GATGATTGTTCTCCCAGCTGATGAATTGAGCAGATCGAGTAAACAAATTTTCCTAATCTTTCTGTTCAAGCGCCATCTAC”: 0.835 RPM ratio (pull-down/input).
The same measure for “GATGATTGTTCTCCCAGCTGATGAATTTACGAGATCGAGTAAACAAATTTTCCTAATCTTTCTGTTCAAGCGCCATCTAC”: 1.19 RPM ratio (pull-down/input); for “GATGATTGTTCTCCCAGCTGATGAATTGTTCGAATCGAGTAAACAAATTTTCCTAATCTTTCTGTTCAAGCGCCATCTAC”: 1.12 RPM ratio (pull-down/input).
Next, “GATGATTGTTCTCCCAGCTGATGAATTGATACCCTCGAGTAAACAAATTTTCCTAATCTTTCTGTTCAAGCGCCATCTAC”: 0.951 RPM ratio (pull-down/input); “GATGATTGTTCTCCCAGCTGATGAATTTACCCGTTCGAGTAAACAAATTTTCCTAATCTTTCTGTTCAAGCGCCATCTAC”: 1.08 RPM ratio (pull-down/input).
Take “GATGATTGTTCTCCCAGCTGATGAATTTACGCAATCGAGTAAACAAATTTTCCTAATCTTTCTGTTCAAGCGCCATCTAC”: the binding signal is 1.58 RPM ratio (pull-down/input).
For the sequence “GATGATTGTTCTCCCAGCTGATGAATTATGGGTCTCGAGTAAACAAATTTTCCTAATCTTTCTGTTCAAGCGCCATCTAC”, the binding signal is 0.859 RPM ratio (pull-down/input).
Next, “GATGATTGTTCTCCCAGCTGATGAATTCGTCAGTTCGAGTAAACAAATTTTCCTAATCTTTCTGTTCAAGCGCCATCTAC”: 0.905 RPM ratio (pull-down/input); “GATGATTGTTCTCCCAGCTGATGAATTCGATCCGTCGAGTAAACAAATTTTCCTAATCTTTCTGTTCAAGCGCCATCTAC”: 0.886 RPM ratio (pull-down/input); “GATGATTGTTCTCCCAGCTGATGAATTCACCAACTCGAGTAAACAAATTTTCCTAATCTTTCTGTTCAAGCGCCATCTAC”: 0.907 RPM ratio (pull-down/input).
Next, “GATGATTGTTCTCCCAGCTGATGAATTTGGTCCTTCGAGTAAACAAATTTTCCTAATCTTTCTGTTCAAGCGCCATCTAC”: 0.877 RPM ratio (pull-down/input); “GATGATTGTTCTCCCAGCTGATGAATTGAACACATCGAGTAAACAAATTTTCCTAATCTTTCTGTTCAAGCGCCATCTAC”: 1.25 RPM ratio (pull-down/input).
Turning to “GATGATTGTTCTCCCAGCTGATGAATTAGCGGCGTCGAGTAAACAAATTTTCCTAATCTTTCTGTTCAAGCGCCATCTAC”, the binding signal is 0.886 RPM ratio (pull-down/input).
The same measure for “GATGATTGTTCTCCCAGCTGATGAATTATCTCCATCGAGTAAACAAATTTTCCTAATCTTTCTGTTCAAGCGCCATCTAC”: 0.936 RPM ratio (pull-down/input).
With “GATGATTGTTCTCCCAGCTGATGAATTCCTAAACTCGAGTAAACAAATTTTCCTAATCTTTCTGTTCAAGCGCCATCTAC”, the binding signal is 0.939 RPM ratio (pull-down/input).
Consider “GATGATTGTTCTCCCAGCTGATGAATTACACATCTCGAGTAAACAAATTTTCCTAATCTTTCTGTTCAAGCGCCATCTAC”, for which the binding signal is 1.26 RPM ratio (pull-down/input).
Next, “GATGATTGTTCTCCCAGCTGATGAATTGCGTACTTCGAGTAAACAAATTTTCCTAATCTTTCTGTTCAAGCGCCATCTAC”: 1.15 RPM ratio (pull-down/input); “GATGATTGTTCTCCCAGCTGATGAATTTAACTGTTCGAGTAAACAAATTTTCCTAATCTTTCTGTTCAAGCGCCATCTAC”: 0.912 RPM ratio (pull-down/input).
Consider “GATGATTGTTCTCCCAGCTGATGAATTCGCGAATTCGAGTAAACAAATTTTCCTAATCTTTCTGTTCAAGCGCCATCTAC”, for which the binding signal was 0.86 RPM ratio (pull-down/input).
The same measure for “GATGATTGTTCTCCCAGCTGATGAATTGTTTCCGTCGAGTAAACAAATTTTCCTAATCTTTCTGTTCAAGCGCCATCTAC”: 1.33 RPM ratio (pull-down/input).
The same measure for “GATGATTGTTCTCCCAGCTGATGAATTCTGATAGTCGAGTAAACAAATTTTCCTAATCTTTCTGTTCAAGCGCCATCTAC”: 0.872 RPM ratio (pull-down/input).
The same measure for “GATGATTGTTCTCCCAGCTGATGAATTTGGACATTCGAGTAAACAAATTTTCCTAATCTTTCTGTTCAAGCGCCATCTAC”: 0.95 RPM ratio (pull-down/input).
For “GATGATTGTTCTCCCAGCTGATGAATTCTCGTTGTCGAGTAAACAAATTTTCCTAATCTTTCTGTTCAAGCGCCATCTAC”, the binding signal was 1.07 RPM ratio (pull-down/input).
For the sequence “GATGATTGTTCTCCCAGCTGATGAATTAAGTGACTCGAGTAAACAAATTTTCCTAATCTTTCTGTTCAAGCGCCATCTAC”, the binding signal was 1.01 RPM ratio (pull-down/input).
Next, “GATGATTGTTCTCCCAGCTGATGAATTGCAGTCATCGAGTAAACAAATTTTCCTAATCTTTCTGTTCAAGCGCCATCTAC”: 1.15 RPM ratio (pull-down/input); “GATGATTGTTCTCCCAGCTGATGAATTCTCCGGCTCGAGTAAACAAATTTTCCTAATCTTTCTGTTCAAGCGCCATCTAC”: 0.71 RPM ratio (pull-down/input).
